# Source: the supplement of paper PMC3334620
# Whole data set: some 33,000 sequences, median “E-score (-0.5 to 0.5)” near -0.012, cut for the highest 2% near 0.29. The list shows a part of the results.
# Target: T1, Ybr033w (UniProt P38073)
# T1 sequence: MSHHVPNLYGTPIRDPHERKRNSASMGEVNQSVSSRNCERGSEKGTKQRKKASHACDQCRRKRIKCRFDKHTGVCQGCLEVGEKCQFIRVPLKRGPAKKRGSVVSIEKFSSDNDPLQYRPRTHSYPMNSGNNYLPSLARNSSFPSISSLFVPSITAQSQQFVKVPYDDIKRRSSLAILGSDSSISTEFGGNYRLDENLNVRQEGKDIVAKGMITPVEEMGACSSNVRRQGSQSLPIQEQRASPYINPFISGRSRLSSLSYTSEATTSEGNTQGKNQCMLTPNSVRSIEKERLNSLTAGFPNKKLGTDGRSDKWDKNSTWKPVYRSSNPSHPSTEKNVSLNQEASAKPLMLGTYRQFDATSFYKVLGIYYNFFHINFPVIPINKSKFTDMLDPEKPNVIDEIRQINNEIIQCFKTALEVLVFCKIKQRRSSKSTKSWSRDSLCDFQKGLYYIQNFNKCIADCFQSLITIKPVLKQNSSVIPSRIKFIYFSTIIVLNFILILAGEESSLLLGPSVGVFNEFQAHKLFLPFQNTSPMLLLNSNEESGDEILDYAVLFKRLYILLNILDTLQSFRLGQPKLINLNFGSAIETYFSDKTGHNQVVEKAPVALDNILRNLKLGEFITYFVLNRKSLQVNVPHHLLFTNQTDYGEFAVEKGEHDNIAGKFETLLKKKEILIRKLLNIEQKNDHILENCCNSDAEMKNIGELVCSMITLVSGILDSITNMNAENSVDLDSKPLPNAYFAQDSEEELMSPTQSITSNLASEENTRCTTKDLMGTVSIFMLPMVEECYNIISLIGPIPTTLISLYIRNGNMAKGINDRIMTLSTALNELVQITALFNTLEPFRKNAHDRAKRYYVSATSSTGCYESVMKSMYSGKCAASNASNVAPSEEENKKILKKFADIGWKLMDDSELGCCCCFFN
# Test: PBM E-score (8-mer binding enrichment) (E-score (-0.5 to 0.5)); higher = stronger / more preferred TF binding; most listed sequences are background and not binding sites
# Details: protein concentration: 200 nM; construct: GST-full length
# Summary of the method: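 Universal all-10-mer Agilent arrays, double-stranded by primer extension on fresh or once-stripped slides, were probed with about 100-200 nM GST-tagged yeast transcription factors made by PURExpress. Fluorescent anti-GST detected bound protein, and masliner normalised the scans. E-scores from the Universal PBM Analysis Suite were given to each ungapped eight-base word pooled with its reverse complement.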
row,Sequence,PBM E-score
1,ATAACACG,0.127
2,GGTTCATA,0.0724
3,CCCCCCGG,-0.445
4,AATCAAAC,0.176
5,CCCTGTGA,-0.0983
6,CCTGTTAC,0.0689
7,CGAACAGC,-0.123
8,CTGTGAAG,0.0203
9,GTTGCTAA,0.257
10,CGATCTAC,-0.0159
11,ATTGCAAG,0.115
12,CCCGAAAG,-0.0796
13,CATGTGGC,-0.0578
14,AGGCAGAA,0.0336
15,AAGGCTAT,-0.028
16,AGATCACA,-0.114
17,CCACTTAC,0.0573
18,CTAGCCGC,-0.0909
19,AGAGATCC,0.00324
20,ACTACAAT,0.169
21,GGCGCGCC,-0.112
22,AACTGCTC,-0.0412
23,CCTGGGGC,-0.307
24,ACATGAAT,0.102
25,CGCTCTCC,-0.275

row,Sequence,PBM E-score
1,CCCCTCCA,-0.141
2,CTATAACA,-0.0609
3,ACGATGGG,-0.0786
4,AGATTCCC,-0.116
5,CATTTCAC,0.0384
6,TAATCAGA,0.18
7,GCCCTCAC,-0.234
8,CTCCGCAC,-0.0452
9,CATCTGCC,-0.162
10,ACGCGCCC,-0.17
11,GTTGGCTA,-0.0174
12,AACAGATC,0.131
13,GGGTTACC,-0.288
14,CCAGTCCG,-0.253
15,CCATTATC,0.131
16,ATAGCCTA,0.0325
17,ATAACGGA,0.116
18,AGGCTTAT,-0.0296
19,GCTGCTAA,0.108
20,AATACAGG,-0.0547
21,CGTGCAAC,-0.111
22,GTCTTAGA,-0.0985
23,CAATTGTA,0.0127
24,ATCAGATC,-0.0139
25,ACAACCCC,-0.196

row,Sequence,PBM E-score
1,GATGGTAC,0.0342
2,AGACTACC,0.028
3,GCATAGCC,-0.292
4,ATCAAACC,0.109
5,CGTGGATA,0.116
6,AACGAGTA,0.169
7,AGCACACT,0.0632
8,ACGTTCAG,-0.207
9,GCGGTACA,-0.108
10,ATCCAGTC,0.0535
11,AAGCGGTC,-0.0595
12,ATTCCTCC,0.169
13,AAGTGATT,0.2
14,CTGTTCGA,-0.0495
15,GGGTGAAC,0.00071
16,CTAACGAA,0.0607
17,ATAGACCG,-0.115
18,GACTTTTA,0.0661
19,CTGTTGCC,-0.136
20,CTTCGCTC,-0.0737
21,CAGCTGGG,-0.128
22,GGTTAATA,0.209
23,GAAATCCA,0.108
24,CTGCCGTC,-0.295
25,ATACGCGG,0.0172

row,Sequence,PBM E-score
1,AGGGACTG,-0.18
2,GCAAAAGA,-0.0441
3,GTGTTTAA,0.17
4,ACGATTAG,0.134
5,ATAGCCCG,-0.171
6,ATAGCTCC,-0.159
7,CAAAAGTC,0.0859
8,CACTCCAA,-0.0547
9,ATGGGAAA,0.0136
10,GTGTCTTA,-0.0217
11,ACCATAGT,0.13
12,GCTATACA,0.0601
13,CGCCATCC,-0.111
14,GTAAACAA,0.298
15,CTTTCTTA,-0.051
16,AAGATCCA,0.0702
17,GTTCAATA,0.179
18,CTTCCGGA,0.274
19,GCGTAATA,0.188
20,GACTCGGC,-0.236
21,AGTACGCG,0.137
22,GAATAGTC,-0.0353
23,TATCCCCA,-0.0488
24,ATGGTATA,0.0634
25,GGAAAGAA,0.0259

row,Sequence,PBM E-score
1,ACTGGGTC,-0.276
2,TGGCGCCA,0.0225
3,CCTGGGAC,-0.349
4,CGGGGTCA,-0.176
5,TGCGCCAA,0.0304
6,AACCTCTG,-0.0697
7,AACAAGTA,0.132
8,CCCTCCCA,-0.146
9,GCTTACGA,-0.022
10,ATTCTAAC,0.0811
11,GTAATAGA,0.17
12,CGTCTCAA,0.162
13,AAAGAAAA,0.272
14,CCCCTTAC,-0.27
15,AGTATACG,0.0864
16,AATTTACA,0.134
17,ATAACATC,0.204
18,CAATAGCA,-0.00585
19,ACTACGCC,-0.159
20,CTTACCAC,-0.105
21,AATAACCA,0.239
22,AATACAAC,0.271
23,GAGGAATC,0.0289
24,ATGATTAC,0.175
25,AAATAAAA,0.233

row,Sequence,PBM E-score
1,AGCCAGTA,-0.161
2,ACATTCAG,-0.0265
3,TAGATATA,0.0906
4,TCGGGCAA,0.00269
5,GTTGCGAA,0.0149
6,GTCGGTAA,-0.166
7,AGACAGCG,-0.215
8,CGCACGGC,-0.104
9,ATATAAAC,0.142
10,GGGTTTAA,0.113
11,AGTCGGCC,-0.224
12,CATGAGGA,0.0386
13,CCCCACGA,-0.156
14,GACATTAA,0.166
15,TCCACGAA,0.208
16,TACAGCTA,-0.17
17,CGACTTGC,-0.0989
18,ACGCAAAT,0.0741
19,GTGAGGAA,-0.00376
20,ACAATGAT,0.0257
21,CGTGAAAC,-0.137
22,ATGTTGAA,0.216
23,AGTTTCAA,0.117
24,CTCAATGC,-0.0435
25,AACGATGC,-0.167

row,Sequence,PBM E-score
1,AAACGAGT,0.193
2,AGCTCCTC,-0.233
3,CCGTGCCC,-0.237
4,CTCACGTC,-0.252
5,AAAATATG,0.299
6,GAAACGAA,0.188
7,CGGGACTA,-0.23
8,GAAGTGAC,-0.0703
9,CCACATGA,0.00689
10,CCCAATTA,0.074
11,CGAAGGGC,-0.194
12,ATGCTTCG,-0.0313
13,CGTGTGTC,-0.243
14,GCCAATTA,0.0522
15,ACGTTTAG,0.068
16,ACAGGATC,-0.103
17,CAGGACCG,-0.102
18,CGGGCTCC,-0.345
19,AAATGATC,0.328
20,CTACAGGA,0.16
21,CTTATCAC,-0.0454
22,GGATGCGA,-0.0739
23,ATTCCATC,0.237
24,ACCCTATA,-0.0436
25,AGGAAACT,0.113

row,Sequence,PBM E-score
1,AAAGATAA,0.299
2,CGGGCGGA,0.00224
3,GGCCTTAC,-0.186
4,ACCCGGAA,0.236
5,CAAAATTC,0.308
6,GTCTAGAA,0.129
7,TATTTAGA,0.24
8,CTGAAGGC,-0.256
9,CATCCCCG,-0.0676
10,ATGATAGC,0.248
11,AAGAATTA,0.23
12,AAAGCCCA,0.0491
13,GAAAGTCA,0.0267
14,AATGCACT,0.0697
15,CCATTGTA,0.17
16,TACAAGCA,0.189
17,TGCCGACA,-0.0146
18,CCCGAAAC,0.0496
19,ACGTATAT,0.156
20,ATCTGGTC,-0.00999
21,GACAAACA,0.116
22,TGATGCAA,0.081
23,GGGCTTCA,-0.312
24,CAAACGCG,0.162
25,ATAGTCAG,0.133

row,Sequence,PBM E-score
1,AACGCGAC,-0.159
2,ATTACCTC,0.0406
3,AATTAACG,0.233
4,GCGTTAGA,-0.0446
5,ATGCAAAG,0.187
6,CGACCTCG,-0.0938
7,ACAATAAT,0.341
8,CACTCCTG,-0.134
9,ACTGAAGC,0.117
10,TCACGAGA,-0.0537
11,GCACCAGA,-0.218
12,CCGCTTTC,-0.13
13,AGCCGCAA,-0.143
14,AGGAAGTG,0.0598
15,GTACGTGA,0.0204
16,GCGTCTTA,-0.0256
17,GGCTGAAC,-0.135
18,ATGAAATG,-0.0179
19,CCGACACC,-0.313
